# Measurements published in PubChem BioAssay AID1868 (National Center for Advancing Translational Sciences (NCATS), 2009).
# Screen size: about 270,000 compounds; about 20 (0.007%) were called active. This list was built around the results that the source calls inconclusive (neither active nor inactive); the mix of calls is not that of the screen. Calls come from the whole dose curve; as a rule, active = well fitted inhibition curve with a large enough effect; inconclusive = small, poorly fitted or top-dose-only effect, or effect the other way; inactive = flat fitted curve, though single readings scatter. Potencies of inconclusive entries are doubtful fits and often do not repeat.
# Target: Galactokinase (Homo sapiens) (UniProt P51570)
# Sequence of UniProt P51570 (P51570 whole entry, looked up): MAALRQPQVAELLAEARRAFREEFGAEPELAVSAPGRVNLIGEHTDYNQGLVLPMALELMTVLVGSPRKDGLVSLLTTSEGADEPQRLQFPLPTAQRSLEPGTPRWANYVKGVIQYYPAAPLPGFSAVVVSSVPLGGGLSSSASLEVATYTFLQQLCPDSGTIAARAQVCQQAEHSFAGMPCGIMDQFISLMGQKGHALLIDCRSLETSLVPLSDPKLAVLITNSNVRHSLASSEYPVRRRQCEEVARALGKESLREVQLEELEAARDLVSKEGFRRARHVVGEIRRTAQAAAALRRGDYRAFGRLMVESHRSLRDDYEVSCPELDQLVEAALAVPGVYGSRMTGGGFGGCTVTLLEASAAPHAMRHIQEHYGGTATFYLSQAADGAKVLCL
# Experiment: qHTS Assay for Inhibitors of Human Galactokinase (GALK)
# Details: Purified GALK, Kinase-Glo residual ATP luminescence; series mostly up to 57.5 µM; activity change, negative = inhibition: at the top concentration
# Outline: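 Galactose (100 uM) and ATP (35 uM) were turned over by 5 nM GALK for 1 h at RT. Kinase-Glo Plus then converted the remaining ATP into a luminescent signal.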
# % is set by controls: 0 for no effect and ±100 for the full control effect; potency is the fitted concentration of half-maximal effect; tags give direction and shape of the fitted curve.
Structure (SMILES),"activity change, negative = inhibition",Potency
COc1ccc(-c2ccc(-c3noc(-c4ccco4)n3)c(OC)n2)cc1,inactive: -1.6%,
COc1ccc2cc(C(N)=O)c(=Nc3ccc(C)cc3)oc2c1,,"inconclusive: 39.8 µM [falling, single point]"
CN1CCN(c2nc(-c3ccco3)cc(C(F)(F)F)n2)CC1,inactive: -2.54%,
CN1c2ccccc2C(C)(C)C12CC(CCl)=NO2 (stereo not given),inactive: -0.138%,
NS(=O)(=O)c1ccc(NC2=CC(=O)C(=O)c3ccccc32)cc1,,"inconclusive: 39.8 µM [falling, single point]"
CCC(CNc1cc(OC)cc2cccnc12)NC1CCCCC1 (stereo not given),,"inconclusive: 25.1 µM [falling, single point]"
Cc1nn(-c2nc3ccccc3[nH]2)c(=O)c2ccccc12,,"inconclusive: 12.6 µM [rising, partial curve]"
CN(C)c1cc(Cl)c2nonc2c1N,,"inconclusive: 31.6 µM [falling, single point]"
Cc1nn(Cc2noc(C(=O)NCC3CCCO3)n2)c(C)c1Br (stereo not given),,"inconclusive: 35.5 µM [falling, single point]"
CS(=O)(=O)C1=NSC2=NC(=O)/C(=C\c3ccc(OS(=O)(=O)c4ccccc4)cc3)C(=N)N21,,"inconclusive: 31.6 µM [falling, single point]"
S=c1[nH]nc(Cc2sc(-c3ccccc3)nc2-c2ccccc2)o1,,active: 28.2 µM
Cc1[nH][nH]c(=O)c1C(c1ccc(-c2ccccc2C(=O)O)o1)c1c(C)[nH][nH]c1=O,,"inconclusive: 39.8 µM [falling, single point]"
COc1c(C)cccc1C(=O)Nc1ccc(N2CCN(C(=O)c3ccccc3C)CC2)cc1,inactive: 4.63%,
COC(=O)c1ccc(NC(=S)NC2CC2)cc1,inactive: -1.61%,
CCS(=O)(=O)C1=NSC2=NC(=O)/C(=C\c3ccc(OS(=O)(=O)c4ccccc4)c(OC)c3)C(=N)N21,,"inconclusive: 39.8 µM [falling, single point]"
O=C(NCCc1ccccc1)c1ccc2c(=O)[nH]c3c(C(=O)NCC4CCCO4)sc(=S)n3c2c1 (stereo not given),,"inconclusive: 35.5 µM [falling, single point]"
Cc1ccc(SCC(=O)N2CCC(C(N)=O)CC2)cc1,inactive: 1.57%,
O=C1/C(=C/c2ccc(O)cc2)COc2ccccc21,inactive: 2.45%,
CS(=O)(=O)c1ccc2c(c1)sc1nc(=O)c(/C=C3/C=CC(=O)C(O)=C3)c(N)n12,,"inconclusive: 28.2 µM [falling, partial curve]"
C/C=C\C(=O)Nc1cccc(C2=NOC3(C2)C[C@H](C(N)=O)N(C(=O)/C=C/CC)C3)c1 (stereo not given in full),inactive: 0.366%,
O=C(NNC(=O)c1ccccc1C(=O)O)c1cc2ccccc2o1,,"inconclusive: 39.8 µM [falling, single point]"
O=C(Nc1ccccc1N1CCOCC1)c1cnccn1,inactive: -1.49%,
CCOC(=O)C1=C(C)N(c2ccc(OC)cc2)C(=O)/C1=C\c1cccs1,inactive: 2.82%,
C=CCn1c(=NC(=O)c2cc(Cl)sc2Cl)sc2cc(S(N)(=O)=O)ccc21,inactive: -3.56%,
COc1ccc(C(=O)O/N=C(\N)c2ccccn2)cc1,,"inconclusive: 14.1 µM [rising, partial curve]"

Structure (SMILES),"activity change, negative = inhibition",Potency
O=C1C=C(N(CCO)Cc2ccccc2)c2ccccc2C1=O,,"inconclusive: 31.6 µM [falling, single point]"
O=C(O)CCc1nnc(SCC(=O)Nc2ccc(Cl)c(C(F)(F)F)c2)[nH]c1=O,,"inconclusive: 31.6 µM [falling, single point]"
COC(=O)c1ccccc1NC1=C/C(=N\S(=O)(=O)c2ccc(C(=O)O)cc2)c2ccccc2C1=O,,"inconclusive: 39.8 µM [falling, single point]"
COc1cc(/C=C2/C(=O)NN(c3ccc(Cl)c(Cl)c3)C2=O)cc([N+](=O)[O-])c1O,,"inconclusive: 25.1 µM [falling, single point]"
O=C1C=C(NCc2ccccc2)c2ccccc2C1=O,,"inconclusive: 31.6 µM [falling, single point]"
CCN1CCN(C(=O)C(C)N(c2ccc(C)cc2)S(C)(=O)=O)CC1 (stereo not given),inactive: -1.14%,
Cc1snc(S(=O)(=O)/C(C#N)=N/Nc2cccc(C(F)(F)F)c2)c1C#N,,active: 28.2 µM
COc1ccc(C/C(O)=C(\C#N)c2nc3ccccc3s2)cc1,,"inconclusive: 31.6 µM [falling, single point]"
O=C(Cc1ccccc1)Nc1ccccc1C(=O)Nc1ccccc1,inactive: 1.06%,
Cc1nc(NS(=O)(=O)c2ccc(Cl)s2)c2c3c(sc2n1)CCCC3,,"inconclusive: 39.8 µM [falling, single point]"
O=C(O)c1ccc(S(=O)(=O)/N=C2\C=C(Nc3ccccc3F)C(=O)c3ccccc32)cc1,,"inconclusive: 17.8 µM [falling, partial curve]"
Cn1nnc(NC(=S)NC(=O)c2ccco2)n1,inactive: -1.02%,
N#Cc1c(-c2ccccc2)nc(SCC(=O)N2c3ccccc3Sc3ccccc32)[nH]c1=O,,"inconclusive: 35.5 µM [falling, single point]"
C=CCN1C(=O)/C(=C/c2ccc(OC(C)=O)c(OCC)c2[N+](=O)[O-])SC1=S,,"inconclusive: 31.6 µM [falling, single point]"
Oc1ccc2ccccc2c1/C=N/n1cnnc1,inactive: -1.37%,
Cc1ccc(NS(=O)(=O)c2cc(C(=O)NCc3ccccn3)ccc2Cl)cc1C,inactive: -4.88%,
O=C1/C(=C\c2cc(Cl)c(O)c(Cl)c2)SC(=S)N1Cc1ccccc1,,"inconclusive: 35.5 µM [falling, single point]"
CC1=NN(c2ccccc2)C(=O)/C1=C/c1c(O)n(-c2ccc(F)c(Cl)c2)[nH]c1=O,,"inconclusive: 22.4 µM [falling, single point]"
O=C1c2ccccc2C(=O)C12OC2c1cccc2ccccc12 (stereo not given),,"inconclusive: 39.8 µM [falling, single point]"
Cc1ccccc1OCC(=O)Nc1ccncc1,inactive: 0%,
CCN1CCN(C(=S)NC(=O)/C=C/c2cccs2)CC1,inactive: -1.15%,
C/C=C/C(=O)Nc1cccc(C2=NOC3(C2)C[C@@H](C(N)=O)N(C(=O)c2cc([N+](=O)[O-])cc([N+](=O)[O-])c2)C3)c1 (stereo not given in full),inactive: 5.45%,
CCCc1nc2c(=O)n(C)c(=O)nc-2n(C)n1,,active: 1.78 µM
Cc1ccc(-c2nc(N)c3c(-c4ccc(C)cc4)nn(C(C)(C)C)c3n2)cc1,inactive: 0.0205%,
N/C(=N\OC(=O)c1cc(Cl)ccc1Cl)c1ccccn1,inactive: 0.69%,

Structure (SMILES),"activity change, negative = inhibition",Potency
N#C/C(=C\c1coc2ccc(O)cc2c1=O)C(=O)Nc1nc2ccccc2s1,,"inconclusive: 25.1 µM [falling, single point]"
O=C(Nc1nnc(S(=O)(=O)N2CCOCC2)s1)c1cccc(Br)c1,,"inconclusive: 31.6 µM [falling, single point]"
NC(=O)C1CCN(C2=C(Cl)C(=O)c3ccccc3C2=O)CC1,,"inconclusive: 39.8 µM [falling, single point]"
O=C(Nc1cccc(Oc2ccc(C(=O)O)c(C(=O)O)c2)c1)c1ccc(-c2ccccc2)cc1,,"inconclusive: 28.2 µM [falling, single point]"
CCS(=O)(=O)C1=NN2C(=N)/C(=C\c3ccc(OS(=O)(=O)c4ccccc4)cc3)C(=O)N=C2S1,,"inconclusive: 35.5 µM [falling, partial curve]"
Cc1ccc(-c2nn(-c3ccccc3)cc2/C=C2\SC(=S)N(CC(=O)O)C2=O)cc1,,"inconclusive: 39.8 µM [falling, single point]"
O=C(NNc1cc(N2CCOCC2)nc(N2CCOCC2)n1)c1ccc([N+](=O)[O-])cc1,,"inconclusive: 39.8 µM [falling, single point]"
Cn1nc(-c2ccc(Cl)cc2)nc2c(=O)n(C)c(=O)nc1-2,,active: 1.12 µM
CC1CCCCN1S(=O)(=O)c1ccc(C(=O)Nc2nnc(-c3ccccc3Cl)o2)cc1 (stereo not given),inactive: 1.47%,
O=C(Sc1cccc2cccnc12)c1ccc(F)cc1,inactive: 10.3%,
O=C(O[C@@H]1Cc2c(O)cc(O)cc2O[C@@H]1c1cc(O)c(O)c(O)c1)c1cc(O)c(O)c(O)c1,,active: 10 µM
Cc1ccc(C)c(CN2C(=O)CSc3ccc(C(=O)NCCN4CCOCC4)cc32)c1,,"inconclusive: 7.08 µM [falling, single point]"
COc1ccccc1OCC(O)CN1CCN(C(=O)c2ccccc2)CC1 (stereo not given),inactive: 0%,
COc1cc(/C=C2\C(=O)ON=C2c2ccccc2)cc(Br)c1O,,"inconclusive: 25.1 µM [falling, single point]"
O=C1C(Cl)=C(N2CCC(C(=O)O)CC2)C(=O)c2ccccc21,,"inconclusive: 35.5 µM [falling, single point]"
C=CCNC(=S)NNC(=O)C(CCCC)CC(C)O (stereo not given),inactive: 0.599%,
COc1cccc2cc(-c3cc(=O)oc4cc(C)c(O)cc34)oc12,,"inconclusive: 3.98 µM [falling, single point]"
COc1cc(NC(=S)N2CCCC(CO)C2)cc(OC)c1 (stereo not given),inactive: 3.39%,
c1cc2c(cc1C1=NNC(=NC3CC3)SC1)OCCO2,,"inconclusive: 12.6 µM [rising, partial curve]"
COc1ccc(NC(=O)N/C=C/c2ccco2)cc1,inactive: 4.79%,
CCn1c(CN2CCN(C(=O)c3ccco3)CC2)nc2c1c(=O)n(C)c(=O)n2C,inactive: 0.567%,
COCCCNC(=O)c1ccc2c(=O)n(Cc3ccc(Cl)cc3)c(=S)[nH]c2c1,inactive: 1.07%,
CCOC(=O)c1sc2ncn(/N=C/c3ccccn3)c(=O)c2c1C,inactive: 3.83%,
O=C(NC1(O)C(=O)c2ccccc2C1=O)c1c(Cl)cccc1Cl,,"inconclusive: 39.8 µM [falling, single point]"
CCS(=O)(=O)C1=NSC2=NC(=O)/C(=C\c3ccc(OS(=O)(=O)c4ccccc4)cc3)C(=N)N21,,"inconclusive: 39.8 µM [falling, single point]"
